# According to article PMC4336329 (PLoS ONE, 2015):
# In all, about 310,000 compounds went through this assay and about 14,000 (4.5%) showed an effect of 50% or more. Effects have a minus sign here. The list shows a part of the results. Where a SMILES comes first, the peptide text is derived from it. The star is where a group is joined. Boc = CC(C)(C)OC(=O)*
# Biological target: human ether-à-go-go-related gene (hERG) potassium channel (human, UniProt Q12809)
# Experiment: primary screen, population patch clamp on CHO cells stably expressing hERG
# 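Further: peak tail current of the secondary pulse compared with the same well before compound.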
# Chain of human ether-à-go-go-related gene (hERG) potassium channel (Q12809 whole entry, looked up): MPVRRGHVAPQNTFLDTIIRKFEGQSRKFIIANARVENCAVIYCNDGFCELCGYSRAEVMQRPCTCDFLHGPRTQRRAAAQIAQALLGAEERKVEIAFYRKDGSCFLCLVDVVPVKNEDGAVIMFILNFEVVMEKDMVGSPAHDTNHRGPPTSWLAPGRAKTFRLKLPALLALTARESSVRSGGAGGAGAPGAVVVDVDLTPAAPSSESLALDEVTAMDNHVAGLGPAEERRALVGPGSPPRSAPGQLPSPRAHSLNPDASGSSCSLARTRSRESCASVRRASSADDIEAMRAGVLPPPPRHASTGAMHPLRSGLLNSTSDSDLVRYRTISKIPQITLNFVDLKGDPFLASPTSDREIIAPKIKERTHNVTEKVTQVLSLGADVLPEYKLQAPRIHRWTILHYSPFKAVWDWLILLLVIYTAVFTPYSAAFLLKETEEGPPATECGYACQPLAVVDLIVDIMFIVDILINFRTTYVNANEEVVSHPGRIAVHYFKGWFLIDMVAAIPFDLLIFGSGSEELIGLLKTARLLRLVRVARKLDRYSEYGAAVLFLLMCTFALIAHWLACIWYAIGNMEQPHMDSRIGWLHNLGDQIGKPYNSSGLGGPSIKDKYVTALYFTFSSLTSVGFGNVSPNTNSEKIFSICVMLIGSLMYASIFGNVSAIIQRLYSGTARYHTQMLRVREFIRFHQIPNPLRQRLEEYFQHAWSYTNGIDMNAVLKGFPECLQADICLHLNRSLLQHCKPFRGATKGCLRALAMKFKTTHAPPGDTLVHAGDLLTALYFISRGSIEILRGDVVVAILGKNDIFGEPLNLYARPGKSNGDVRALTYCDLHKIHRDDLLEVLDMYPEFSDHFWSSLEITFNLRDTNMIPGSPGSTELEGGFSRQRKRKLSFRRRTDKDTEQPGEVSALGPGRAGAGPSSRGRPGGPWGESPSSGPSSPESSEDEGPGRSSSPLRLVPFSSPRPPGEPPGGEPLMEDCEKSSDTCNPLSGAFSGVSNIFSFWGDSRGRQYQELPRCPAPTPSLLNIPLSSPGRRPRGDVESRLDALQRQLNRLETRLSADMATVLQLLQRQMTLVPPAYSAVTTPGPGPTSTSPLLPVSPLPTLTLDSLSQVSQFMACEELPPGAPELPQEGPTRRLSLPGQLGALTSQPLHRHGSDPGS
row,Structure (SMILES),"hERG current change (%, negative = inhibition) at 10uM"
1,CC1CCCC(C)N1C(=O)COC(=O)c1n[nH]c(=O)c2ccccc12 (centres unmarked),-6.1%
2,Cc1cccc(NC(=O)CCN2C(=O)c3ccccc3C2=O)c1,-8.68%
3,CC(Sc1ccc(Cl)cc1)C(=O)Nc1ccccc1-c1ccccc1 (centres unmarked),11.6%
4,CC(C)c1onc(C(=O)NCc2ccccc2)c1[N+](=O)[O-],7.38%
5,COc1ccc(C(=O)COC(=O)c2cnc(C)cn2)c(OC)c1,-18.7%
6,Cc1csc2c(N3CCN(S(=O)(=O)c4ccc(Cl)cc4)CC3)ncnc12,16.4%
7,COc1cccc(CNC(=O)C2CCN(S(=O)(=O)N3CCC4(CC3)OCCO4)CC2)c1,-9.91%
8,CC1(C)CC(=O)C(C=Nc2ccc(C(=O)c3ccccc3)cc2N=CC2=C(O)CC(C)(C)CC2=O)=C(O)C1,-18.5%
9,CC1C[C@@]2(NC(=O)NC2=O)C(C)CN1C (some centres unmarked),21.2%
10,OCCN(Cc1ccccc1)C(=S)NC1CCCCC1,17.9%
11,CNCCCCOc1ccc(C(C)(C)C)cc1Cl.O=C(O)C(=O)O,-12.7%
12,O=[N+]([O-])c1cccc(S(=O)(=O)N/N=C\c2ccc3c(c2)OCO3)c1,5.33%
13,Cc1ccccc1-n1c(-c2ccoc2C)n[nH]c1=S,15.5%
14,COC(=O)C1=C(C)Nc2nnnn2C1c1cccnc1 (centres unmarked),12.2%
15,CCCNC(=O)C1CC(=O)N(c2ccc(OCc3ccc(Cl)cc3)cc2)C1 (centres unmarked),11.9%
16,N[C@@H](Cc1ccccc1)C(=O)N1CCC(C(=O)NCC(=O)Nc2ccc(F)cc2)CC1,12.3%
17,Cc1cc(C(=O)NCC23CC4CC(CC(C4)C2)C3)c(C)o1,-13.7%
18,CC(C)c1nn2c(N)c(/C=C3\C=Nc4ccccc43)c(=O)nc2s1,18%
19,CSc1nnc(-c2cc(C)on2)n1-c1ccccc1,7.8%

row,Structure (SMILES),"hERG current change (%, negative = inhibition) at 10uM"
1,O=C(O)c1ccccc1NS(=O)(=O)c1cccc(-n2sc3ccccc3c2=O)c1,30.4%
2,Nc1ncnc2c1c(-c1ccc(Oc3ccccc3)cc1)cn2C1CCCC1,10.5%
3,Cc1ccsc1C(=O)N1CCCC(CO)(Cc2ccccc2)C1 (centres unmarked),-3.04%
4,O=C(CSc1nnc(Cc2cc(=O)[nH]c(=O)[nH]2)n1-c1ccc(Cl)cc1)N1CCc2ccccc21,14%
5,O=C(c1cccs1)N1CCCC(c2nc3c(nnn3Cc3cccc(Cl)c3)c(=O)[nH]2)C1 (centres unmarked),-36.6%
6,CC(=O)Nc1ccc(S(=O)(=O)N(Cc2cccnc2)Cc2cc3ccccc3[nH]c2=O)cc1,11.4%
7,Cc1ccc(CNCc2ccco2)cc1.O=C(O)C(=O)O,2.8%
8,CC(=O)N1N=C2C3CCN(CC3)C2C1c1cccc2ccccc12 (centres unmarked),2.64%
9,Cc1cc(C)c(S(=O)(=O)NC(C)C)c(C)c1-n1cnnn1,11.9%
10,Cc1cc(NC(=O)c2cc(C(C)C)on2)nn1Cc1ccc(Cl)cc1,7.56%
11,Cn1cc(C(=O)N2CCN(c3ccccn3)CC2)c(=O)c2cc(S(=O)(=O)N3CCOCC3)ccc21,-9.72%
12,COc1ccc(NC(=O)CC(Cc2ccc(Cl)cc2)C(=O)O)cc1 (centres unmarked),11.9%
13,Cc1cc(C)cc(N(CC(=O)NCc2ccc(F)cc2)C(=O)CCC(=O)Nc2ccccn2)c1,18.7%
14,CSCCC1NC(=O)N(C(C)C(=O)Nc2cc(Cl)cc(Cl)c2)C1=O (centres unmarked),-5.88%
15,COc1ccc(/C=N/Nc2nc(C)c([N+](=O)[O-])c(N(C)c3ccccc3)n2)cc1OC,6.54%
16,CC(=O)c1ccc(N=C2C(=O)Nc3ccccc32)cc1,12.2%
17,CNC(=S)Nc1ccc(C(N)=O)cc1,5.37%
18,CCCc1nnc(NC(=O)Nc2ccccc2OC)s1,13%
19,CC12CCC(C(=O)NCC3CCCO3)(OC1=O)C2(C)C (centres unmarked),12.3%

row,Structure (SMILES),"hERG current change (%, negative = inhibition) at 10uM"
1,CCCCOc1ccc(C(=O)NN2CCOCC2)cc1,1.09%
2,CCN(CC(=O)NC1CC1)S(=O)(=O)c1ccc(OC)cc1,14.4%
3,COc1ccc(S(=O)(=O)n2cnc(C)c2)cc1,17.9%
4,Cn1nc([N+](=O)[O-])nc1Oc1ccccc1F,9.45%
5,COC(=O)[C@@H]1CCCN1C(=O)[C@@H](NC(=O)OC(C)(C)C)C(C)C (Boc-Val-Pro-OMe),7.28%
6,CC1(C)CCc2c([nH]c3ccccc3c2=O)O1,12.8%
7,CC(C(=O)NCCN1C(=O)S/C(=C\c2cccs2)C1=O)N1C(=O)c2ccccc2C1=O (centres unmarked),-16.3%
8,COc1ccccc1N/C=C/c1onc(C)c1[N+](=O)[O-],1.63%
9,O=[N+]([O-])c1ccc(S(=O)(=O)N/N=C/c2ccc3c(c2)OCO3)cc1,4.04%
10,CCOC(=O)c1c(NC(=O)Cn2nnc(-c3ccc(Cl)cc3)n2)sc(CC)c1C,15.4%
11,O=S(=O)(c1ccc(F)cc1)N1CCc2ccccc21,-16.1%
12,COc1ccc(C2=NN(C(=O)c3ccccc3)C(c3ccc(OC)c(OC)c3)C2)c(OC(C)=O)c1 (centres unmarked),-3.05%
13,CCN(C(=O)c1ccc(NC(C)=O)cc1)c1ccccc1,-0.241%
14,N/C(=N\OC(=O)Cc1ccccc1[N+](=O)[O-])c1ccccn1,1.08%
15,CCOC(=O)N1CCC(N2C(=O)c3ccc(C(=O)Nc4ccc(OC)cc4)cc3C2=O)CC1,12.7%
16,Cc1nc2ccc(Br)cc2c(=O)n1Cc1cccs1,-49.3%
17,CCn1c(=O)n(CC)c2cc(S(=O)(=O)Nc3cc(C)cc(C)c3C#N)ccc21,-7.11%
18,O=C(Cc1ncc(C(F)(F)F)cc1Cl)NCc1cccnc1,17.1%
